Experimental data from paper PMC2243016.
These are yes or no findings as the source states them, for the method shown. Binding seen in cells or lysates may run through a third protein. Some entries that bind do so weakly or less than the wild type. For some of these results: Sequences can lack the tags named with a protein.

How the values were obtained:
[1] = target: T1, GST-C1/324 (amino-terminal half of Corto) (Drosophila melanogaster) (UniProt P41046); assay: pull-down; GST-Corto fusion proteins on beads, in vitro translated 35S-CycG, autoradiography; only the target purified
T1 sequence: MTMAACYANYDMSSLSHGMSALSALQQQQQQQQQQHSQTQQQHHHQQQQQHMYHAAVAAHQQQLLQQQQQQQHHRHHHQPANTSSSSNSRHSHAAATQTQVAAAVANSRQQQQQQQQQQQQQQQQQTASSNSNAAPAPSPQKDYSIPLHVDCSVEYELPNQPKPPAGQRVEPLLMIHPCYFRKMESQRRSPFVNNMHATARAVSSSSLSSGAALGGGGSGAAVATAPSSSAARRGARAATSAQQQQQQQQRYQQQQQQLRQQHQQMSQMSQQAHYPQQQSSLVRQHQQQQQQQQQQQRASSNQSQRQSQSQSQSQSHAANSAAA

[2] = target: T2, GST-Corto (full-length protein) (Drosophila melanogaster) (UniProt P41046); assay: as above
T2 sequence: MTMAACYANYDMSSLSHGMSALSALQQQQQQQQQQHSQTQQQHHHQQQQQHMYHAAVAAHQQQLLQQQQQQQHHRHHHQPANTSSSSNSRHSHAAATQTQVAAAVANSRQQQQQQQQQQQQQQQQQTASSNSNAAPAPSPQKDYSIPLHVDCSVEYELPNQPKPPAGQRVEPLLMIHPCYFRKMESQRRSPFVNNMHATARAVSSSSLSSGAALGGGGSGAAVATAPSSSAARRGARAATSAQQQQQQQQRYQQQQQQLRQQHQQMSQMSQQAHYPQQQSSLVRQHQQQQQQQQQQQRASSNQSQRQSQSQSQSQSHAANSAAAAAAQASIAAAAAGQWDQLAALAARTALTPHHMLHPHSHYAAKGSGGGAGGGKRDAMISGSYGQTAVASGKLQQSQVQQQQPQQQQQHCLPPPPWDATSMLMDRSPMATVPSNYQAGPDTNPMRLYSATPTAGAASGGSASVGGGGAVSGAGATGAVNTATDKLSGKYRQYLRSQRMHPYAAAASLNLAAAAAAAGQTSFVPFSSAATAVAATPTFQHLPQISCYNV

[3] = target: T3, GST-CycG (full-length CycG protein) (Drosophila melanogaster) (UniProt Q95TJ9); assay: pull-down; GST-CycG fusion proteins on beads, in vitro translated 35S-Corto, autoradiography; only the target purified
T3 sequence: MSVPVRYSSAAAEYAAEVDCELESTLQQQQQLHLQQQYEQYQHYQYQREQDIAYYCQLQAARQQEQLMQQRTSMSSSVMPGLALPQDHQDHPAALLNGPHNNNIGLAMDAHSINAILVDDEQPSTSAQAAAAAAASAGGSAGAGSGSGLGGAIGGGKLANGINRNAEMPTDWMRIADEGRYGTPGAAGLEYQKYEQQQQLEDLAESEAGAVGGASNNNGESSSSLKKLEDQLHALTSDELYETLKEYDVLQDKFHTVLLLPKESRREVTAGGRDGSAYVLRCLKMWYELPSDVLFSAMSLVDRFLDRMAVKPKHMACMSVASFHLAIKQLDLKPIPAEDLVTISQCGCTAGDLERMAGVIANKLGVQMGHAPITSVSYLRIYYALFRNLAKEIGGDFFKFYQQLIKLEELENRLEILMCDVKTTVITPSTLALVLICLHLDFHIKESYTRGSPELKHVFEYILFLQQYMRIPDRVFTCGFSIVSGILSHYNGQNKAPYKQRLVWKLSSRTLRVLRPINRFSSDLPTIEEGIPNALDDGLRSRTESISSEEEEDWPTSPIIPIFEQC

[4] = target: T4, GST-CycG-215/566 (Drosophila melanogaster) (UniProt Q95TJ9); assay: as above
T4 sequence: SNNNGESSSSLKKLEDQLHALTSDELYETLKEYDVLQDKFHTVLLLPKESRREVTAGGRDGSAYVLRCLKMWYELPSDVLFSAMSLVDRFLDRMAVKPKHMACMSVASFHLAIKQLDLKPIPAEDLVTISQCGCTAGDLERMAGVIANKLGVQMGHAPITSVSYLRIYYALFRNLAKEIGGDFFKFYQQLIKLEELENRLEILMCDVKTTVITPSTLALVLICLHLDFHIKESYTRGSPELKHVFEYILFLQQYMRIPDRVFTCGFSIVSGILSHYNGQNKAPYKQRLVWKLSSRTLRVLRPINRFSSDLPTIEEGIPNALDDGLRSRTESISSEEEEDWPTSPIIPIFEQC

[5] = target: T5, Corto (endogenous, 70 kDa) (Drosophila melanogaster (endogenous in w1118 embryos)) (UniProt P41046); assay: co-IP; total extract of 0-14 h w1118 embryos in RIPA buffer, IP with rabbit anti-Corto (mock: preimmune serum), overnight at 4°C, blot with rat anti-CycG
T5 sequence: T2 sequence

[6] = target: T6, Corto-Flag (Drosophila melanogaster) (UniProt P41046); assay: co-IP; S2 cells co-transfected with pAct::Corto-Flag and pAct::Myc-CycG, extract in RIPA buffer, IP with anti-Flag or anti-Myc (mock: anti-HA), blot with anti-Myc or anti-Flag
T6 sequence: T2 sequence

[7] = target: T7, Myc-CycG (Drosophila melanogaster) (UniProt Q95TJ9); assay: as above
T7 sequence: T3 sequence

B1: In vitro translated CycG protein (35S-labelled) (protein, UniProt Q95TJ9 1-566)
chain: T3 sequence
modifications: 35S label
binding [1]: binds
binding [2]: binds

B2: In vitro translated Corto protein (35S-labelled) (protein, UniProt P41046 1-550)
chain: T2 sequence
modifications: 35S label
binding [3]: binds
binding [4]: no binding

B3: CycG, 68 kDa isoform (endogenous) (protein, UniProt Q95TJ9 1-566)
chain: T3 sequence
binding [5]: binds

B4: Myc-CycG (protein, UniProt Q95TJ9 1-566)
chain: T3 sequence
binding [6]: binds

B5: Corto-Flag (protein, UniProt P41046 1-550)
chain: T2 sequence
binding [7]: binds
